Screen size: about 16,000 compounds; about 120 (0.75%) were called active. Not shown: some 4% with an inconclusive outcome. The call rests on the fitted dose curve; in most records, active means well fitted inhibition curve with a large enough effect; inconclusive means small, poorly fitted or top-dose-only effect; inactive means no such curve, though single readings can be large or run the other way. This is one part of the list.
Target: Rap guanine nucleotide exchange factor 3 (Homo sapiens) (UniProt O95398)
UniProt O95398, sequence (O95398 whole entry, looked up): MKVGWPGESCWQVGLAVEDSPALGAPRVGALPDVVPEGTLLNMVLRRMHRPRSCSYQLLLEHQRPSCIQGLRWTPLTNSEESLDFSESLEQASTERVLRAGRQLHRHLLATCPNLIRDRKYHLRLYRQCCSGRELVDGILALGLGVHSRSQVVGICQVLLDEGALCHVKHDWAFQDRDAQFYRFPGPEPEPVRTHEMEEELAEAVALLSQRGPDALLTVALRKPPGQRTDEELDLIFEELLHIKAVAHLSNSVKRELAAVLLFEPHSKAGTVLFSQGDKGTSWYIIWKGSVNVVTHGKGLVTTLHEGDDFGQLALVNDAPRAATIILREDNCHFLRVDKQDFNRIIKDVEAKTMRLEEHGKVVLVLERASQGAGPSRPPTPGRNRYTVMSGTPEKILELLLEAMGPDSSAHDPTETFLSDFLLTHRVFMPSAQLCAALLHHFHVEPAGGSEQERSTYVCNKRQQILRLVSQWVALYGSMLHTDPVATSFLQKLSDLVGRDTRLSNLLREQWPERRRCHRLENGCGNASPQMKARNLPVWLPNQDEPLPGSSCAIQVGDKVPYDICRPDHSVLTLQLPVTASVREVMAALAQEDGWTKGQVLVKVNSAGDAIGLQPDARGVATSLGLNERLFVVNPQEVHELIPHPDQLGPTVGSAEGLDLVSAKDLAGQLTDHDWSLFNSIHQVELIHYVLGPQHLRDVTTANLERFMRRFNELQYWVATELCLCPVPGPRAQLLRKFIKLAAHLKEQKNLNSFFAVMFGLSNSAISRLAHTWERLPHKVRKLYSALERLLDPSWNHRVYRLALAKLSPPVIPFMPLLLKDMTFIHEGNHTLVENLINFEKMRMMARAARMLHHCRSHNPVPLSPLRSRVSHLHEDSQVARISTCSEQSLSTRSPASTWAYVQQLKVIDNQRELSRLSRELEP
Experiment: Validation qHTS for antagonist of cAMP-regulated guanine nucleotide exchange factor 3 (EPAC1);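 further: plate controls were DMSO for no effect and ATA control for full effect; nearly all actives have a fitted effect of over 75% in size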
Conditions: EPAC1 Rap1B-BODIPY-GDP exchange, fluorescence; activity change, negative = inhibition: at the top concentration
Summary of the method: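 EPAC1 (100 nM) mixed with 250 nM RAP1B-BODIPY-GDP and 50 uM GDP; compounds in concentration series, 5 min at room temperature. Fluorescence (ex 480/em 540 nm) read every 5 min for 30 min; normalized to ATA control and DMSO.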

Row | Structure (SMILES) | activity change, negative = inhibition
1 | C[C@@H](N)Cc1cnc[nH]1 | inactive
2 | COc1ccc2c3c([nH]c2c1)C(C)=NCC3 | inactive
3 | CCC(C)(C)c1ccc(O)cc1 | inactive: 5.01%
4 | CCCN1CCC[C@@H]2Cc3[nH]ncc3C[C@H]21 | inactive
5 | COc1ccc(/C=C/C(=O)N2CC3C[C@@H](C2)Cn2c3cccc2=O)cc1OC | inactive: -7.41%
6 | COc1ccc(CC2NC[C@H](O)[C@H]2OC(C)=O)cc1 (some centres not stated) | inactive: 6.05%
7 | Cc1nc2ccccc2c(=O)n1-c1ccccc1Cl | inactive: 27.4% [at 320 µM]
8 | CC[C@H](C)[C@H](NC(=O)[C@H](CCCN=C(N)N)NC(=O)[C@H](CCCN=C(N)N)NC(=O)[C@H](CC(C)C)NC(=O)[C@H](Cc1ccccc1)NC(=O)CNC(=O)CNC(=O)[C@@H](N)Cc1ccc(O)cc1)C(=O)O | inactive: 26.7% [at 15.3 µM]
9 | CCCCC/C=C\C[C@@H](/C=C/C=C\C/C=C\CCCC(=O)O)OO | inactive: 27.2% [at 1.57 µM]
10 | O=C1CS[C@@H](c2ccccc2Cl)c2cc(Cl)ccc2N1 | inactive: -21.8%
11 | [N-]=[N+]=CC(=O)OC[C@H](N)C(=O)O | inactive: 18.3%
12 | CCN(CC)Cc1nccn1-c1ccc([N+](=O)[O-])cc1C(=O)c1ccccc1Cl | inactive: 4.4%
13 | C[C@@H](N)Cn1ccc2cc(F)c(Cl)cc21 | inactive: 14.3%
14 | Cc1nc(N)sc1CCN | inactive
15 | C#CCN1C(C)=C(C(=O)CCO)[C@@H](c2cccc(-n3oo3)c2)C(C(=O)OC)=C1C | inactive: -19.2%
16 | O=C(O)CCCCCCNC1c2ccccc2CCc2ccccc21 | inactive: -8.12%
17 | NCCCC[C@H](NC(=O)[C@H](Cc1ccccc1)NC(=O)[C@H](CCCN=C(N)N)NC(=O)[C@@H](N)Cc1ccc(O)cc1)C(N)=O | inactive: 38.3% [at 15.3 µM]
18 | NCCCP(=O)(O)CC1CCCCC1 | inactive
19 | C=C(C)C1Cc2c(ccc3c(=O)c4c(oc23)COc2cc(OC)c(OC)cc2-4)O1 (configuration not stated) | inactive
20 | COc1ccc(Cc2nccc3cc(OC)c(OC)cc23)cc1OC | inactive
21 | CCCOc1ccc2[nH]cc(C3=CCNCC3)c2n1 | inactive: -2.18%
22 | FC(F)OC(F)(F)C(F)Cl (configuration not stated) | inactive: 4.83%
23 | C[C@H](CN1CCOCC1)C(C(=O)N1CCCC1)(c1ccccc1)c1ccccc1 | inactive: -2.9% [at 320 µM]
24 | CNCCc1c[nH]c2ccc(O)cc12 | inactive

Row | Structure (SMILES) | activity change, negative = inhibition
25 | C[C@@]12CCC3C(CC[C@@H]4CC(O)CC[C@@]34C)C1CCC2O (some centres not stated) | inactive: 18.9%
26 | C[C@@H]1[C@H]2Cc3ccc(O)cc3[C@]1(C)CCN2C | inactive: 3.01% [at 606 µM]
27 | NCCCP(=O)(O)O | inactive: -0.712% [at 75.8 µM]
28 | CCC1(CC)C(=O)C=CNC1=O | inactive: 14.7%
29 | C=C(C)C1CNC(C(=O)O)C1CC(=O)O (configuration not stated) | inactive: 8.1%
30 | O=C(N/N=C/c1ccc([N+](=O)[O-])o1)c1cc([N+](=O)[O-])cc([N+](=O)[O-])c1O | inactive: -16.1%
31 | C[C@]12CC[C@H]3[C@@H](CC[C@@]45O[C@@H]4C(O)=C(C#N)C[C@]35C)[C@@H]1CC[C@@H]2O | inactive: 26.9%
32 | C[C@@]12CC(c3ccoc3)OC(=O)C1CC[C@@]1(C)C2C2C=C[C@@]1(O)C(=O)O2 (some centres not stated) | inactive: 6.33%
33 | COC1=C[C@H]2[C@H]3Cc4ccc(OC)c(O)c4[C@@]2(CCN3C)CC1=O | inactive: -8.75%
34 | O=C(Oc1ccccc1)N1CCC2(CCCN(C(c3ccccc3)c3ccccc3)C2)CC1 | inactive: 5.57%
35 | O=C1CSC(c2ccccc2Cl)c2cc(Cl)ccc2N1 (configuration not stated) | inactive: -3.6% [at 201 µM]
36 | NNC(=O)c1ccc(O)cc1 | inactive: 4.51% [at 75.8 µM]
37 | COC(=O)[C@@H](N)CCCN=C(N)N[N+](=O)[O-] | inactive
38 | CN1CCN=C(c2ccccc2)c2cc(Cl)ccc21 | inactive: 22.7%
39 | C[C@]1(O)CC[C@H]2[C@@H]3CCC4=CC(=O)CC[C@]4(C)[C@@]3(F)[C@@H](O)C[C@@]21C | inactive: 20.7%
40 | CCCC[C@H]1C(=O)O[C@H](C)[C@H](NC(=O)c2cccc(NC=O)c2OC)C(=O)O[C@@H](C)[C@@H]1OC(=O)CC(C)C | inactive: -5.92%
41 | CC(C)(C)NCC(O)c1cc(Cl)c(N)c(Cl)c1 (configuration not stated) | inactive
42 | CC(C)[C@@]1(NC(=O)[C@H]2CC3c4cccc5[nH]cc(c45)C[C@H]3N(C)C2)O[C@@]2(O)C3CCCN3C(=O)[C@@H](Cc3ccccc3)N2C1=O (some centres not stated) | inactive: -1.38%
43 | CC[C@]1(C2=NCCN2)Cc2ccccc2O1 | inactive: 7.54%
44 | Fc1ccc(C(OCCN2CCN(CCCc3ccccc3)CC2)c2ccc(F)cc2)cc1 | inactive
45 | N[C@@H](CCl)C(=O)O | inactive: 5.05% [at 75.8 µM]
46 | COc1cc2c(cc1OC)[C@@]13CCN4CC5=CCO[C@H]6CC(=O)N2[C@H]1[C@H]6[C@H]5C[C@H]43 | inactive: 23.7%
47 | CCOCN(C(=O)CCl)c1c(C)cccc1CC | inactive: 14.4%
